Patent US10870625B2, “Zwitterionic propargyl-linked antifolates useful for treating bacterial infections” (THE UNIVERSITY OF CONNECTICUT, priority 2016, dated 2020)
Converted amounts (≈) assume the structure as drawn.

Columns and labels:
Sa43300(F98Y) = assay type: cell-based, Staphylococcus aureus; details: progenitor Sa(F98Y), 6× MIC
Sa(H149R) strain [1] = assay: microbe, parasite or virus in culture; details: Staphylococcus aureus, read-out: MIC Sa(H149R)
Sa(F98Y) strain [2] = assay: microbe, parasite or virus in culture; details: Staphylococcus aureus, read-out: MIC Sa(F98Y)
Sa(H30N, F98Y) strain [3] = assay: microbe, parasite or virus in culture; details: Staphylococcus aureus, read-out: MIC Sa(H30N, F98Y)
Sa(F98Y, H149R) strain [4] = assay: microbe, parasite or virus in culture; details: Staphylococcus aureus, read-out: MIC Sa(F98Y, H149R)
Sa43300(H149R) = assay type: cell-based, Staphylococcus aureus; details: progenitor Sa(H149R), 6× MIC
Sa(H149R) strain [5] = test system: Sa(H149R) strain
Sa(F98Y, H149R) strain [6] = test system: Sa(F98Y, H149R) strain
Sa(F98Y) strain [7] = test system: Sa(F98Y) strain
Sa(H30N, F98Y) strain [8] = test system: Sa(H30N, F98Y) strain

`CCc1nc(N)nc(N)c1C#CC(C)c1cc(OC)cc(-c2ccncc2)c1` (stereo not drawn) [Compound A] was tested, and the “Mutational Frequency of DHFR mutation F98Y/H30N” value (Sa43300(F98Y)) was 8.2 × 10^−12, the MIC (Sa(H149R) strain [1]) was 2.5 µg/mL (≈ 6.69 µM) and the MIC (Sa(F98Y) strain [2]) was 2.5 µg/mL (≈ 6.69 µM). For the same molecule, the MIC (Sa(H30N, F98Y) strain [3]) was 20 µg/mL (≈ 53.6 µM), the MIC (Sa(F98Y, H149R) strain [4]) was 80 µg/mL (≈ 214 µM) and the “Mutational Frequency of DHFR mutation F98Y/H149R” value (Sa43300(H149R)) was 1.23 × 10^−11.
Work on `COc1cc(Cc2cnc(N)nc2N)cc(OC)c1OC` [TMP, trimethoprim] yielded an MIC (Sa(H149R) strain [1]) of 2.5 µg/mL (≈ 8.61 µM), an MIC (Sa(F98Y) strain [2]) of 10 µg/mL (≈ 34.4 µM) and an MIC (Sa(H30N, F98Y) strain [3]) of 50 µg/mL (≈ 172 µM). For the same molecule, the MIC (Sa(F98Y, H149R) strain [4]) was 100 µg/mL (≈ 344 µM).
With `CCc1nc(N)nc(N)c1C#C[C@@H](C)c1cc(OC)cc(-c2ccc(C(=O)O)cc2)c1` [Compound 32] the “MIC Sa(H149R)” value (Sa(H149R) strain [5]) was 0.0781 µg/mL (≈ 0.188 µM), the “MIC Sa(F98Y, H149R)” value (Sa(F98Y, H149R) strain [6]) was 1.25 µg/mL (≈ 3 µM) and the “MIC Sa(F98Y)” value (Sa(F98Y) strain [7]) was 0.0781 µg/mL (≈ 0.188 µM). For the same molecule, the “MIC Sa(H30N, F98Y)” value (Sa(H30N, F98Y) strain [8]) was 1.25 µg/mL (≈ 3 µM).
For `CCc1nc(N)nc(N)c1C#CCc1cc(OC)c(OC)c(-c2ccncc2)c1` [Compound 60], the “MIC Sa(H149R)” value (Sa(H149R) strain [5]) was 0.625 µg/mL (≈ 1.6 µM), the “MIC Sa(F98Y, H149R)” value (Sa(F98Y, H149R) strain [6]) was 40 µg/mL (≈ 103 µM) and the “MIC Sa(F98Y)” value (Sa(F98Y) strain [7]) was 0.625 µg/mL (≈ 1.6 µM). The “MIC Sa(H30N, F98Y)” value (Sa(H30N, F98Y) strain [8]) was 20 µg/mL (≈ 51.4 µM).
`CCc1nc(N)nc(N)c1C#CC(C)c1cc2c(c(-c3ccncc3)c1)OCO2` (stereo not drawn) [F, reference compound] was tested, and the “MIC Sa(H149R)” value (Sa(H149R) strain [5]) was 2.5 µg/mL (≈ 6.45 µM), the “MIC Sa(F98Y, H149R)” value (Sa(F98Y, H149R) strain [6]) was 20 µg/mL (≈ 51.6 µM) and the “MIC Sa(F98Y)” value (Sa(F98Y) strain [7]) was 1.25 µg/mL (≈ 3.23 µM). The “MIC Sa(H30N, F98Y)” value (Sa(H30N, F98Y) strain [8]) was 20 µg/mL (≈ 51.6 µM).
With `CCc1nc(N)nc(N)c1C#CC(C)c1cc(OC)cc(-c2ccncc2)c1` (stereo not drawn) [Compound D, reference compound] the “MIC Sa(H149R)” value (Sa(H149R) strain [5]) was 0.625 µg/mL (≈ 1.67 µM), the “MIC Sa(F98Y, H149R)” value (Sa(F98Y, H149R) strain [6]) was 20 µg/mL (≈ 53.6 µM) and the “MIC Sa(F98Y)” value (Sa(F98Y) strain [7]) was 0.625 µg/mL (≈ 1.67 µM). For the same molecule, the “MIC Sa(H30N, F98Y)” value (Sa(H30N, F98Y) strain [8]) was 40 µg/mL (≈ 107 µM).
In the case of `CCc1nc(N)nc(N)c1C#CC(C)c1cc(-c2ccncc2)ccc1OC` (racemic) [C, reference compound], the “MIC Sa(H149R)” value (Sa(H149R) strain [5]) is reported as 2.5 µg/mL (≈ 6.69 µM), the “MIC Sa(F98Y, H149R)” value (Sa(F98Y, H149R) strain [6]) is reported as 40 µg/mL (≈ 107 µM) and the “MIC Sa(F98Y)” value (Sa(F98Y) strain [7]) is reported as 2.5 µg/mL (≈ 6.69 µM). The “MIC Sa(H30N, F98Y)” value (Sa(H30N, F98Y) strain [8]) was 20 µg/mL (≈ 53.6 µM).
With `CCc1nc(N)nc(N)c1C#C[C@@H](C)c1cc(-c2ccncc2)ccc1OC` [E, reference compound] the “MIC Sa(H149R)” value (Sa(H149R) strain [5]) was 1.25 µg/mL (≈ 3.35 µM), the “MIC Sa(F98Y, H149R)” value (Sa(F98Y, H149R) strain [6]) was 20 µg/mL (≈ 53.6 µM) and the “MIC Sa(F98Y)” value (Sa(F98Y) strain [7]) was 1.25 µg/mL (≈ 3.35 µM). For the same molecule, the “MIC Sa(H30N, F98Y)” value (Sa(H30N, F98Y) strain [8]) was 10 µg/mL (≈ 26.8 µM).
In the case of `CCc1nc(N)nc(N)c1C#CCc1cc(-c2ccc(C(=O)O)cc2)ccc1OC` [Compound 15], the “MIC Sa(H149R)” value (Sa(H149R) strain [5]) is reported as 0.1564 µg/mL (≈ 0.389 µM), the “MIC Sa(F98Y, H149R)” value (Sa(F98Y, H149R) strain [6]) is reported as >50 µg/mL and the “MIC Sa(F98Y)” value (Sa(F98Y) strain [7]) is reported as 0.1563 µg/mL (≈ 0.388 µM). The “MIC Sa(H30N, F98Y)” value (Sa(H30N, F98Y) strain [8]) was 6.25 µg/mL (≈ 15.5 µM).
With `CCc1nc(N)nc(N)c1C#CC(SC)c1cc(-c2ccc(C(=O)O)cc2)ccc1OC` (stereo not drawn) [Compound 29] the “MIC Sa(H149R)” value (Sa(H149R) strain [5]) was 0.0781 µg/mL (≈ 0.174 µM), the “MIC Sa(F98Y, H149R)” value (Sa(F98Y, H149R) strain [6]) was >40 µg/mL and the “MIC Sa(F98Y)” value (Sa(F98Y) strain [7]) was 0.1563 µg/mL (≈ 0.348 µM). For the same molecule, the “MIC Sa(H30N, F98Y)” value (Sa(H30N, F98Y) strain [8]) was >40 µg/mL.
With `CCc1nc(N)nc(N)c1C#CC(C)c1cc2c(c(-c3ccncc3)c1)OCO2` (stereo not drawn) [Compound B, reference compound] the “MIC Sa(H149R)” value (Sa(H149R) strain [5]) was 5 µg/mL (≈ 12.9 µM), the “MIC Sa(F98Y, H149R)” value (Sa(F98Y, H149R) strain [6]) was 40 µg/mL (≈ 103 µM) and the “MIC Sa(F98Y)” value (Sa(F98Y) strain [7]) was 1.25 µg/mL (≈ 3.23 µM). For the same molecule, the “MIC Sa(H30N, F98Y)” value (Sa(H30N, F98Y) strain [8]) was 40 µg/mL (≈ 103 µM).
In the case of `CCc1nc(N)nc(N)c1C#C[C@H](C)c1cc(OC)cc(-c2ccc(C(=O)O)cc2)c1` [Compound 31], the “MIC Sa(H149R)” value (Sa(H149R) strain [5]) is reported as 0.0391 µg/mL (≈ 0.0939 µM), the “MIC Sa(F98Y, H149R)” value (Sa(F98Y, H149R) strain [6]) is reported as 2.5 µg/mL (≈ 6 µM) and the “MIC Sa(F98Y)” value (Sa(F98Y) strain [7]) is reported as 0.0781 µg/mL (≈ 0.188 µM). The “MIC Sa(H30N, F98Y)” value (Sa(H30N, F98Y) strain [8]) was 1.25 µg/mL (≈ 3 µM).
For `CCc1nc(N)nc(N)c1C#CCc1cc(OC)cc(-c2ccc(C(=O)O)cc2)c1` [Compound 16], the “MIC Sa(H149R)” value (Sa(H149R) strain [5]) was 0.1563 µg/mL (≈ 0.388 µM), the “MIC Sa(F98Y, H149R)” value (Sa(F98Y, H149R) strain [6]) was 10 µg/mL (≈ 24.8 µM) and the “MIC Sa(F98Y)” value (Sa(F98Y) strain [7]) was 0.1563 µg/mL (≈ 0.388 µM). For the same molecule, the “MIC Sa(H30N, F98Y)” value (Sa(H30N, F98Y) strain [8]) was 5 µg/mL (≈ 12.4 µM).
